# Source: PubChem BioAssay AID743262 (National Center for Advancing Translational Sciences (NCATS), 2014)
# Screen size: about 1,300 compounds; about 25 (2%) were called active. About 9% were inconclusive and are not listed. Calls follow the shape of the dose curve; as a rule, active = well fitted activation curve with a large enough effect; inconclusive = small, poorly fitted or top-dose-only effect; inactive = flat fitted curve, though single readings scatter. The list shows a part of the results.
# Biological target: Glucagon-like peptide 1 receptor (Homo sapiens) (UniProt P43220)
# Assay: qHTS of GLP-1 Receptor Agonists: Hit Validation; as to activation: % of control where 0% means no effect
# Details: HEK293 GLP-1R, cAMP-response luciferase, 4-6 h; series mostly up to 46.1 µM; activation: at the top concentration
# How it was run: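 HEK293 cells stably co-expressing a cAMP-responsive luciferase reporter and GLP-1R (hypersensitive receptor for weak agonists; wild-type line for confirmation) were plated 12 h at 37 °C, exposed to compound 4-6 h, then read by luminescence after 12 min detection reagent.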
# Potency is read from the fitted curve at half-maximal effect.
# UniProt P43220, sequence (P43220 whole entry, looked up): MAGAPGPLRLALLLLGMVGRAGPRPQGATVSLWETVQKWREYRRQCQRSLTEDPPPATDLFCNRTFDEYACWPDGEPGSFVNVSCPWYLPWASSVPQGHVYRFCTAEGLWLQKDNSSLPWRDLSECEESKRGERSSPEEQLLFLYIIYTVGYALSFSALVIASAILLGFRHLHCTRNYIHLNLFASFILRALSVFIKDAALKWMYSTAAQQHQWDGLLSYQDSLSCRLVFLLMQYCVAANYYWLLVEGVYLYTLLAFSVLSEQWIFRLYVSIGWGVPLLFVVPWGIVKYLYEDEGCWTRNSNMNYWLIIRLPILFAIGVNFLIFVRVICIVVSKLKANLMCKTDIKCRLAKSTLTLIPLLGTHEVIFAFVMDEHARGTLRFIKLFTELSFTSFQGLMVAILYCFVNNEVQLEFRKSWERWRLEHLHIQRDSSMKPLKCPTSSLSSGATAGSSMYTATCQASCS
SMILES,activation,Potency
O=C(/C=C/c1cccc(F)c1)Nc1ccc(S(=O)(=O)Nc2ncccn2)cc1,inactive: 2.02%,–
CCn1ncc(C2=NOC(C(=O)Nc3ccccc3C(=O)OC)C2)c1C (configuration not stated),inactive: 6.52%,–
Cc1cccc(NC(=O)COc2ccccc2)c1,inactive: -0.34%,–
COc1ccc(C2=NCCc3cc(OC)c(OC)cc32)cc1OC,inactive: 9.08%,–
CC(C)Cn1cnc2c(SCCc3ccccc3)nc(N)nc21,inactive: 2.22%,–
CCc1ccc(OCC2c3cc(OC)c(OC)cc3CCN2C(C)=O)cc1 (configuration not stated),inactive: 9.92%,–
COc1cc(-c2cnc3c(NC=O)cc(-c4ccccc4Cl)cn23)cc(OC)c1OC,–,active: 5.8 µM
COCCN1CCn2c(nc3cc(NC(=O)Cn4nc(C)c5ccccc5c4=O)ccc32)C1,inactive: 2.07%,–
CCOC(=O)COc1ccc(/C=C2/SC(=Nc3ccccc3)N(Cc3cccnc3)C2=O)cc1OC,inactive: 21.1%,–
COc1cc2cc(C)c(SCC(=O)N3CCN(C(=O)c4ccco4)CC3)nc2cc1OC,inactive: 16.6%,–
CCN(Cc1ccc(OC)c(F)c1)C(=O)c1oc2ccccc2c1COC,inactive: 19%,–
O=S(=O)(c1cccc(-c2nc3ccccc3s2)c1)N1CCCC1,inactive: 10%,–
COCCCn1c(=O)c2sccc2n(Cc2ccccc2)c1=O,inactive: -0.164%,–
COc1ccc(C2c3ccc(O)cc3Oc3ncn4nc(-c5ccccn5)nc4c32)cc1OC (configuration not stated),inactive: 12.7%,–
CC(C)NC(=O)NC(=O)COC(=O)C1(C)CC1(Cl)Cl (configuration not stated),inactive: -0.221%,–
O=C1[C@H](CC[C@H](O)c2ccc(F)cc2)[C@@H](c2ccc(O)cc2)N1c1ccc(F)cc1,inactive: -0.287%,–
COC(=O)Nc1nc(-c2ccccc2)c(C(=O)c2ccccc2)s1,inactive: 23.9%,–
COCCNC(=O)c1ccc2c(c1)ncn2-c1ccc(C)c(Cl)c1,inactive: 4.58%,–
CN(C)c1nc(OCCOC(=O)Nc2ccc(Cl)cc2Cl)nc(N(C)C)n1,inactive: 3.5%,–
CCCCN(CCCNC(=O)c1c(C)cc(=O)oc1C)c1ccccc1,inactive: -0.747%,–
Cc1ccc2c(CSc3nc4ccccc4c(=O)n3CCCO)cc(=O)oc2c1C,inactive: 24%,–
NC(c1ccccc1)c1ccncc1 (configuration not stated),inactive: -0.625%,–
CCOC(=O)c1ccc(NC(=S)N(CCCN2CCCCC2)Cc2ccco2)cc1,inactive: -0.472%,–

SMILES,activation,Potency
CCCCCCn1c(N2CCC(C)CC2)nc2c1c(=O)[nH]c(=O)n2C,inactive: 7.97%,–
CC1(C)NC(=O)N(CCCOc2ccc(Br)cc2Cl)C1=O,inactive: -0.718%,–
COc1ccc(/C=C(\C#N)C(=O)Nc2ccccn2)cc1,inactive: 0.0306%,–
COc1cc2c(cc1OC)-c1cc(OCc3cccnc3)nc(=O)n1CC2,inactive: 14.3%,–
CCCCn1c(SCc2ccc(C(=O)OC)o2)nc2cc(S(N)(=O)=O)ccc21,inactive: 5.89%,–
CCn1c(C)cc(/C=C2/SC(=O)N(C(C)C(=O)OC)C2=O)c1C (configuration not stated),inactive: 1.7%,–
Cn1c(=O)[nH]c(=O)c2c1nc(Sc1ncccn1)n2CCCc1ccccc1,inactive: 2.01%,–
Cc1ccc(-c2nc3ccccc3c(=O)n2CCCN2CCOCC2)cc1,inactive: -0.601%,–
COc1ccc(CN(C)C(=O)COC(=O)c2cc([N+](=O)[O-])ccc2N2CCCC2)c(OC)c1OC,inactive: 16.9%,–
COc1cccc(Nc2nc(N)c([N+](=O)[O-])c(NCc3ccco3)n2)c1,inactive: 21.8%,–
CCN1C(=O)c2cccc3c(NC(=O)c4ccccc4)ccc1c23,inactive: 7.45%,–
CCN1CCN(c2nc3sc4c(c3c(=O)n2-c2ccc(OC)cc2)CCCCC4)CC1,inactive: 1.84%,–
COC(=O)Cc1c(C)c2ccc(OCc3nn[nH]n3)cc2oc1=O,inactive: -0.628%,–
COc1ccc(-c2nn3c(-c4ccccc4)nnc3s2)cc1OC,inactive: 25.9%,–
COc1ccc(C(=O)NCC2(c3ccc(OC)c(OC)c3)CCCC2)cc1OC,inactive: 14.5%,–
COc1ccc(C2=NN(C(C)=O)C(c3cccs3)C2)cc1OC (configuration not stated),inactive: 14.1%,–
CC(C)CCOC(=O)C1[C@H]2C(=O)N(Cc3cccs3)C[C@]23C=C[C@H]1O3 (some centres not stated),inactive: -0.642%,–
CCOC(=O)c1ccc(CNC(=O)CSc2nc(NC(=O)c3ccccc3)c3c(C)c(C)oc3n2)cc1,inactive: 1.67%,–
CCOc1ccc(S(=O)(=O)N(C)CCO)cc1-c1nc2c(C(C)(C)C)nn(C)c2c(=O)[nH]1,inactive: 5.32%,–
COc1ccc(C(=O)/C=C/c2ccc(N(C)C)cc2)c(OC)c1,inactive: 4.92%,–
CCOCCn1ccc2c(OCC(=O)Nc3ccccc3OC)cccc2c1=O,inactive: 17.4%,–
COc1ccc(C2c3cc(OC)c(OC)cc3CC3C(=O)OCC32)cc1OC (configuration not stated),inactive: 16.3%,–
COC(=O)CSc1ncnc2scc(-c3ccccc3)c12,inactive: 8.75%,–

SMILES,activation,Potency
Cc1cccc2nc(COc3ccc(Cl)c4cccnc34)cn12,inactive: 5.11%,–
Cc1ccc2c(c1)C(=O)C(=O)N2CCOc1ccccc1,inactive: 13.9%,–
COC(=O)c1ccc(Cn2nc(-c3cc(C)ccc3C)ccc2=O)cc1,inactive: 1.3%,–
c1ccc(-c2nc(NCc3cccnc3)c3ccccc3n2)cc1,inactive: 1.56%,–
CCOC(=O)Nc1sc2c(c1C#N)CCC(C)C2 (configuration not stated),inactive: 7.33%,–
CCC(CC)c1nnc(NC(=O)CCc2ccccc2)s1,inactive: -0.463%,–
O=[N+]([O-])c1cccnc1NCCNc1ncc(C(F)(F)F)cc1Cl,inactive: 4.34%,–
Nc1nc(Nc2ccccc2F)nc(NCCO)c1[N+](=O)[O-],inactive: 5.51%,–
Cc1c(C(=O)N(C)CCOc2ccccc2)oc2c(Cl)cccc12,inactive: 11.5%,–
COc1ccc(N(C(=O)/C=C/c2ccc(OC)c(OC)c2)C2=CC3CCC(C2)N3C)cc1 (configuration not stated),inactive: 18.9%,–
N#Cc1ccc(-c2cccs2)nc1SCc1cccnc1,inactive: 26%,–
COc1cc2c(cc1OC)CN(C(=O)c1ccc(S(=O)(=O)N(C)c3ccccc3)cc1)CC2,inactive: 16.1%,–
CCC(C(=O)NC1CCCC1)N(C(=O)Cn1nnc(-c2ccc(OC)c(OC)c2)n1)C1CCCCC1 (configuration not stated),inactive: 5.83%,–
COc1ccc(Nc2nc(-c3sc(C)nc3C)cs2)cc1,inactive: 11.7%,–
CN(C)/C=N/c1nc2nccc(-c3ccccc3)n2n1,inactive: -0.929%,–
CCOc1ccccc1Nc1nc(-c2sc(C)nc2C)cs1,inactive: 11.2%,–
COc1cc(-c2ccc(=O)[nH]n2)ccc1OC(F)F,–,inactive
Cc1ccc(OCC(=O)NC2CCCC(C)C2C)c([N+](=O)[O-])n1 (configuration not stated),inactive: 6.59%,–
COc1ccc(S(=O)(=O)N2CCc3ccccc32)cc1C(=O)Nc1cccnc1,inactive: 4.12%,–
COc1ccc(-c2nc(C#N)c(NC(C)c3ccccc3)o2)cc1OC (configuration not stated),inactive: 24.4%,–
C=CCN1C(=O)/C(=C/C(=O)OC)S/C1=N\NC(=O)c1ccccc1,inactive: -0.421%,–
CCN(C(=O)c1cc2c(=O)n3ccccc3nc2s1)C1CCCCC1,inactive: 24.2%,–
CNC(C)C#Cc1ccc2c(=O)c3ccccc3oc2c1 (configuration not stated),inactive: 5.08%,–

SMILES,activation,Potency
COc1ccc(-c2cn3cc(Cl)ccc3n2)cc1OC,inactive: 7.52%,–
CCOC(=O)c1ccc(N)cc1,inactive: -0.583% [at 19.8 µM],–
COc1cc(/C=N/N(CCO)C2=NS(=O)(=O)c3ccccc32)cc(OC)c1OC,inactive: 3.77%,–
c1ccc(Cn2nnc3c(N4CCC5(CC4)OCCO5)ncnc32)cc1,inactive: -0.288%,–
CCOC(=O)c1c(NC(=O)Cc2ccccc2)sc2c1CC(C)(C)NC2(C)C,inactive: 8.42%,–
CNc1nccc(-c2ccc(Cl)cc2)c1C#N,inactive: 2.52%,–
COc1ccc(NC(=O)c2cccnc2)cc1OCC(C)C,inactive: 0.0143%,–
CCCCc1cc2c(cc1NC(=O)CN1CCCCC1)OCCO2,inactive: 1.46%,–
Cc1cc(N)n(-c2nc(-c3cccnc3)nc3ccccc23)n1,inactive: 19.2%,–
CC1=C/C(=N\Nc2ccccc2[N+](=O)[O-])CC(C)(C)C1,inactive: 2.04%,–
COc1ccc(C(CNC(=O)c2oc3ccccc3c2C)N2CCCC2)cc1 (configuration not stated),inactive: -0.488%,–
COc1ccc(/C=N\NC(=O)c2cccc(F)c2)cc1COc1ccccc1,inactive: 14.9%,–
COc1ccc(N/C=C/C(=O)c2ccc(OC)c(OC)c2)cc1,inactive: 2.3%,–
CN(C)C(=O)CNC(=O)Cc1ccccc1,inactive: 3.4%,–
COc1ccc(CCN(C)C(=O)CCCN2C(=O)c3cccc4cccc(c34)C2=O)cc1OC,inactive: 20.4%,–
C=CCn1c(SCc2c(C)noc2C)nc2ccccc2c1=O,inactive: 21.1%,–
O=C(OCCN1C(=O)c2ccccc2C1=O)c1cc(S(=O)(=O)N2CCOCC2)ccc1F,inactive: 14.3%,–
Nc1ccc(OCc2ccccc2)cc1,inactive: -1.33%,–
COc1ccc(-c2nc(C#N)c(N3CCc4ccccc4C3)o2)cc1OC,inactive: 14.9%,–
COc1ccc(/C=N/NC(=O)C(C)n2nnc3ccccc32)cc1OC (configuration not stated),inactive: 25.1%,–
COCc1cc(C)nc2sc(C(=O)Nc3cccc(OC)c3)c(N)c12,inactive: 16.2%,–
CN(c1ccccc1)c1nc(N)c([N+](=O)[O-])c(NCc2ccco2)n1,inactive: 20.5%,–
CCc1ccc2c(CN(C)Cc3ccccc3OC)cc(=O)oc2c1,inactive: 4.09%,–

SMILES,activation,Potency
COc1ccc(CCC(=O)OCC(=O)c2ccc[nH]2)cc1OC,inactive: -0.276%,–
COC(=O)c1c(NC(=O)Cc2cccs2)sc(C(=O)N2CCCCC2)c1C,inactive: 5.7%,–
Cc1nc2sc(C#N)c(N)c2c2c1CCCC2,inactive: 8%,–
Nc1nc2sc3c(c2c(=O)s1)CCCC3,inactive: 19.1%,–
Cn1c(=O)oc2cc(S(=O)(=O)NC3CCCCCCC3)ccc21,inactive: 3.72%,–
CCCSc1ccc2nc(NC(=O)OC)[nH]c2c1,inactive: 9.19% [at 19.8 µM],–
COc1ccccc1Oc1ccc(N/C=C/C(=O)c2ccc(C)o2)cc1,inactive: 9.43%,–
COCc1cc(C)nc2sc(C(=O)OC(C)C)c(N)c12,inactive: 6.32%,–
CCn1c2ccccc2c2nnc(SCc3ccc(C(=O)OC)o3)nc21,inactive: 20.9%,–
Cc1cc(NC2CCCC2)n2nc(C)c(-c3ccccc3)c2n1,inactive: 5.06%,–
CC(C)Cc1nc(NCCN2CCOCC2)c(C#N)c2c1COC(C)(C)C2,inactive: 1.81%,–
CCCc1nc2n[nH]c(N)c2c2c1CCCC2,inactive: 13%,–
CCCOc1ccc2c3c(c(=O)oc2c1)CCCC3,inactive: 2.52%,–
O=c1c2c3c(sc2nc(NCCO)n1Cc1ccco1)CCCCC3,inactive: 6.54%,–
COc1ccc(/C=N/Nc2ccccn2)cc1OC,inactive: 5.71%,–
Cc1cccc(NC(=O)CSc2nc3ccccc3c(=O)n2C)c1,inactive: 1.65%,–
c1ccc(Cc2nnc3sc(-c4cccs4)nn23)cc1,inactive: 4.08%,–
CC(C)C(=O)COc1c2occc2cc2ccc(=O)oc12,inactive: -0.26%,–
Cc1ccc(Oc2nc(CN3CCOCC3)nc3sc4c(c23)CCC(C)C4)cc1 (configuration not stated),inactive: 8.1%,–
COC(=O)c1ccc(OCC2c3cc(OC)c(OC)cc3CCN2C(C)=O)cc1 (configuration not stated),inactive: 9.94%,–
